# Reference: publication PMC4336329 (PLoS ONE, 2015)
# Among all 310,000 compounds or so, about 2,200 (0.71%) showed an effect of 50% or more. Effects have a minus sign here. The list shows a part of the results.
# Target: human ether-à-go-go-related gene (hERG) potassium channel (human, UniProt Q12809)
# Test: primary screen, population patch clamp on CHO cells stably expressing hERG
# human ether-à-go-go-related gene (hERG) potassium channel, sequence (Q12809 whole entry, looked up): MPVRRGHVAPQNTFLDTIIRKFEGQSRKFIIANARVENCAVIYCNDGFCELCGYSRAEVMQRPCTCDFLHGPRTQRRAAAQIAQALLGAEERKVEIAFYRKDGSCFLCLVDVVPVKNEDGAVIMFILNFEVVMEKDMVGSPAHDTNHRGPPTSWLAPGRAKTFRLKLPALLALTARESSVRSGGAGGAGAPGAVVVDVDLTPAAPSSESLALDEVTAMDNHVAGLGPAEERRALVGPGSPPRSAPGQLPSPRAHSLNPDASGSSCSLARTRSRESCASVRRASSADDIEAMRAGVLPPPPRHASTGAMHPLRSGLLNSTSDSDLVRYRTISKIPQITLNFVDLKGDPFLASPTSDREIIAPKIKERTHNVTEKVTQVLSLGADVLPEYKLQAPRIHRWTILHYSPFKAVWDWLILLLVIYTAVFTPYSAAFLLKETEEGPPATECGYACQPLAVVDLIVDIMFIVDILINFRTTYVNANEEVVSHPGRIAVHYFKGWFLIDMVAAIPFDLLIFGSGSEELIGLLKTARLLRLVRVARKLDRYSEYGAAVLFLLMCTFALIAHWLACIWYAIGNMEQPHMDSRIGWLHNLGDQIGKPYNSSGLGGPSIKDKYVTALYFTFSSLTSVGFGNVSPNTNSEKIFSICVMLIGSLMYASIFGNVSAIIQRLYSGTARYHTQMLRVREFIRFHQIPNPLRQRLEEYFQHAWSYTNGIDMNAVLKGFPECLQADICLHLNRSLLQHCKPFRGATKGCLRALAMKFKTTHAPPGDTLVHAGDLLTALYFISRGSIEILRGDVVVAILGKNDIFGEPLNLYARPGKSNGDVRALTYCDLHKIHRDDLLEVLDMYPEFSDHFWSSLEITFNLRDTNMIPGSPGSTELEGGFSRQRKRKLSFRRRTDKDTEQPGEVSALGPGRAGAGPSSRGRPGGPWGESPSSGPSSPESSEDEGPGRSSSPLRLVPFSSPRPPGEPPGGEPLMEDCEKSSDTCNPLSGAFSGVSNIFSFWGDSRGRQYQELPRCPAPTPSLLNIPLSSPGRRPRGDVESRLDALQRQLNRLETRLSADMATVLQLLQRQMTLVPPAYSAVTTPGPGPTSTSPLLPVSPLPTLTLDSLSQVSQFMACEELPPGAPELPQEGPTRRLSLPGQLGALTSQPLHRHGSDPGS
row,SMILES,"hERG current change (%, negative = inhibition) at 1uM"
1,CC/C=C(/NC(C)=O)c1ccccc1,14.3%
2,CN1c2ccccc2C(=O)/C(=C\Nc2ccc(F)cc2)S1(=O)=O,5.4%
3,COc1ccc(CNC(=O)C(c2ccco2)N(C(=O)CNS(=O)(=O)c2ccccc2)c2ccccc2C)cc1 (stereo not shown),3.96%
4,C=CCn1c(=O)c2c(nc(Br)n2Cc2ccccc2Cl)n(C)c1=O,7.98%
5,CCCC(=O)NNC(=O)CC(=O)Nc1ccccc1C(=O)O,11.7%
6,Cn1c(SCC(=O)Nc2cccc(F)c2)nc2c([nH]c3ccccc32)c1=O,12.8%
7,c1ccc(-c2nnc3sc(CN4CCC5(CC4)OCCO5)cn23)cc1,2.89%
8,COc1ccc(C2NC(=O)CCC2[N+](=O)[O-])c(OC)c1OC (stereo not shown),17.5%
9,C=CCNc1oc(-c2ccco2)nc1S(=O)(=O)c1ccccc1,-2.71%
10,Cc1ccc(NC(=O)c2sc(N)nc2-c2ccc([N+](=O)[O-])cc2)c(C)c1,-0.358%
11,O=C(CNCc1ccc(Cl)cc1)N1CCc2ccccc2C1,1.89%
12,CC(NC(=O)C(C)N1CCN(Cc2ccccc2)CC1)c1ccc(F)cc1 (stereo not shown),12.5%
13,O=C(NCc1cccnc1)c1ccccc1NS(=O)(=O)c1ccccc1,14.9%
14,O=C1NC(c2ccccc2)C(C(=O)c2cccs2)=C1O (stereo not shown),16.4%
15,COc1ccccc1Nc1c2c(nc3ccccc13)CCC2,-7.26%
16,Cc1ccc(OC(=O)c2cccc(C(=O)Oc3ccc(C)cc3)n2)cc1,12.1%
17,COc1ccc(S(=O)(=O)N2CCCC2)cc1Br,13.3%
18,CCOC(=O)c1cn(CC(=O)Nc2ccc(OC)cc2OC)nn1,6.75%
19,CC(=O)Nc1c(O)nc(SCc2ccccc2C#N)[nH]c1=O,4.46%
20,N#C/C(=C\C=C\c1ccccc1)c1nc(-c2ccc(Cl)cc2)cs1,12.8%
21,O=C(O)c1cc(-c2ccc3c(c2)OCO3)nc2ccc(Br)cc12,11.8%
22,COc1cc(S(=O)(=O)N2CCCC3(CCCCC3)C2)ccc1-n1cnnn1,9.29%

row,SMILES,"hERG current change (%, negative = inhibition) at 1uM"
1,CN(C)S(=O)(=O)c1ccc(NC(=O)Cn2c(-c3ccccc3)noc2=O)cc1,8.71%
2,S=c1[nH]c(-c2cccs2)cn1-c1ccccc1,20.8%
3,CC(C)(C)c1ccccc1NC(=O)N1CCNC(=O)C1CC(=O)Nc1ccc(F)cc1 (stereo not shown),18.5%
4,COc1ccc2oc(=O)c(C(=O)N3CCN(c4ccccc4)CC3)cc2c1,2.83%
5,Cl.O=C(CN1CCCCCC1)Nc1cccc(Br)c1,-11.8%
6,CNC(=O)CN(C1CCCCC1)S(=O)(=O)c1ccc(F)cc1,11.7%
7,Cn1c(N)c(C(=O)COC(=O)c2ccc(Cl)c(S(=O)(=O)N3CCCC3)c2)c(=O)n(C)c1=O,4.99%
8,O=C(NC1CC1)C(=O)c1c(-c2ccccc2)[nH]c2ccccc12,15.8%
9,NC1=NC(c2ccccc2)N=C(Nc2ccccc2)N1 (stereo not shown),9.14%
10,O=S1(=O)CCOC[C@H](Cc2ccccc2)N1Cc1ccccc1,-13.3%
11,Cc1cc(=O)[nH]c(N/N=C/c2c(C)nn(-c3ccccc3Cl)c2Cl)n1,21.2%
12,Cc1ccc(/C=N/NC(=O)c2n[nH]c3c2CCCC3)cc1,12.7%
13,Cc1ccc(S(=O)(=O)Cn2nnnc2C(CC(C)C)N2CCN(C(=O)c3ccco3)CC2)cc1.Cl (stereo not shown),7.63%
14,CCc1ccc(S(=O)(=O)N/N=C\c2ccc([N+](=O)[O-])o2)cc1,16%
15,Cc1ccc2c(c1)/C(=C/c1ccccc1)C(=O)N2,15.6%
16,Cn1c2ccccc2c2c(C(=O)N3CCN(C(=O)c4ccco4)CC3)cn(C3CCCCC3)c(=O)c21,11.5%
17,O=C(COc1ccc(Cl)cc1)NCc1cn2cc(Cl)ccc2n1,-15.3%
18,O=C(c1ccc(Br)cc1)N1CCC(C(=O)N2CCN(c3ccccc3)CC2)CC1,-34.5%
19,CCOC(=O)c1c(NC(=O)Cn2nc(C(F)F)cc2C(F)F)sc(C)c1C,10.8%
20,Cc1onc(-c2c(Cl)cccc2Cl)c1NC(=O)NNc1ccccn1,3.17%
21,COc1ccc(NC(=O)CN(C)C(=O)c2cccc(S(=O)(=O)N3CCN(C)CC3)c2)cc1,5.65%
22,COc1ccc(C2(C)NC(=O)N(CC3CCCCC3)C2=O)cc1 (stereo not shown),13.5%

row,SMILES,"hERG current change (%, negative = inhibition) at 1uM"
1,C[C@H]1C[C@@H](C)C(=O)[C@@H]([C@H](O)CC2CC(=O)NC(=O)C2)C1,14.5%
2,COC(=O)COc1ccc2c(=O)c(-c3ccccc3)coc2c1,14.8%
3,CCOC(=O)c1cc2cc([N+](=O)[O-])cc(OC)c2oc1=O,0.469%
4,Cc1cc(C)n(-c2ccc(C(=O)NCc3ccc(F)cc3)cc2)n1,6.3%
5,CC1(c2ccc3ccccc3c2)NC(=O)N(CC(=O)N2CCN(c3ccccc3O)CC2)C1=O (stereo not shown),7.63%
6,CN1CCCN(C(=O)C2CCCCC2)CC1,3.96%
7,O=P(c1ccccc1)(c1ccccc1)N1CCCCC1,7.03%
8,Cc1csc(NC(=O)c2cnccn2)n1,8.71%
9,Cc1c(C(=O)N2CCCC2)sc(NC(=O)c2ccc(Cl)cc2)c1C#N,12.8%
10,CC1CCN(c2ccc(C(=O)Nc3nnc(C4CC4)s3)cc2[N+](=O)[O-])CC1,12.9%
11,O=C(c1ccc(Cl)c(S(=O)(=O)NCc2ccccc2)c1)N1CCN(c2ccccn2)CC1,-14.8%
12,COc1ccc(NC(=O)c2cc3nc(-c4ccccc4)cc(C)n3n2)cc1OC,8.61%
13,Cn1c(=O)[nH]c(=O)c2c1nc(CN1CCN(c3ccccc3F)CC1)n2CCCc1ccccc1,-15.1%
14,CCOC(=O)C1(CCOc2ccccc2)CCN(Cc2cccs2)CC1,-32.6%
15,O=C(CSc1nnc2c(Cl)cc(C(F)(F)F)cn12)Nc1ccc2c(c1)OCO2,-0.381%
16,O=c1ccc(Cc2ccccn2)n[nH]1,13.7%
17,CCOC(=O)C1(c2ccccc2)CCN(CCC(C#N)(c2ccccc2)c2ccccc2)CC1.Cl,2.11%
18,COC(=O)c1cc(=O)n(-c2c(Cl)cc(C(F)(F)F)cc2Cl)[nH]1,15.2%
19,CC(C)CSc1nc2ccccc2n1CC(=O)O,16%
20,COCCNC(=O)/C(C#N)=C/c1cc(Br)c(O)c(OC)c1,4.85%
21,Cc1ccc(C(=O)NC2CCN(C(=O)NCc3ccccc3)CC2)cc1,8.62%
22,O=C(Nc1cccc2c1C(=O)NC2=O)c1cccc(N2C(=O)CCC2=O)c1,1.98%

row,SMILES,"hERG current change (%, negative = inhibition) at 1uM"
1,O=C(CNC(=O)c1cccc(F)c1)N/N=C/c1cccs1,13.4%
2,CCOc1ccc(-c2nc(-c3cccnc3)no2)cc1,5.19%
3,O=S(=O)(Nc1ccc2c(c1)OCCO2)c1cnc[nH]1,9.67%
4,O=C(C1CCCN(S(=O)(=O)c2ccccc2)C1)N1CCN(c2ccc(F)cc2)CC1 (stereo not shown),-62.4%
5,CC(C)Oc1ccc(N2CC(C(=O)OCC(=O)NCc3ccccc3)CC2=O)cc1 (stereo not shown),-3.02%
6,FC(F)(F)c1cccc(Cn2nnnc2-c2cc(Cl)cc(Cl)c2)c1,5.89%
7,C=CCOC(=O)C1=C[C@H](c2coc3ccccc3c2=O)C[C@H](OCCCCO)O1,-4.32%
8,CCOc1ccc(S(=O)(=O)N2CCC(C(N)=O)CC2)c2ccccc12,7.01%
9,O=C(c1ccco1)N1CCN(C(=O)c2ccc(-c3ccc(Cl)cc3)o2)CC1,-67.5%
10,CC1N/C(=C\C(=O)c2ccccc2)N(O)C1(C)C (stereo not shown),12.1%
11,COCCNC(=O)CSc1nc2nc(C)cc(C)n2n1,20.6%
12,CCN(CC)c1ccc(N2C(=O)/C(=C\c3cccs3)SC2=S)cc1,4.12%
13,COc1ccc(CNS(=O)(=O)c2ccc(-n3cnnn3)c(OC)c2)cc1,-2.65%
14,CN(c1ccccc1)S(=O)(=O)c1cccc(NC(=O)CCN2C(=O)C3CCCCC3C2=O)c1 (stereo not shown),6.87%
15,O=C(NC1CCCC1)c1cc2cc(Br)ccc2o1,12.5%
16,COc1ccc(CNC(=O)CCNS(=O)(=O)c2ccc3c(c2)oc(=O)n3C)cc1,21.5%
17,COc1ccc(OCC(=O)N2CCN(C(C)C)CC2)cc1.O=C(O)C(=O)O,12.5%
18,COc1ccc(NS(=O)(=O)c2ccc(C)c(C(=O)NC3CCN(Cc4ccccc4)CC3)c2)cc1,-0.81%
19,CC(=O)N1CCN(C(=O)c2cccc(S(=O)(=O)NCc3ccccc3)c2)CC1,10.6%
20,Cc1snc(SCc2ccc(F)cc2)c1C#N,8.67%
21,COc1ccc(C(=O)C[n+]2cccc(Br)c2)cc1.[Br-],12.5%
22,Nc1c(C(=O)NCCc2ccccc2)c2nc3ccccc3nc2n1CCN1CCOCC1,6.94%
